Values marked as one replicate rest on one cluster of the flow cell; about a third of the high ones do not repeat.
Tested on: ATP
Experiment: switch fluorescence ratio, 500 uM ATP over buffer (Cy3 cluster intensity, sum of 5 cycles each) (fold (ratio)); higher = stronger signal-on switching upon ATP binding; sequences stand for … in TCGTCGGCAGCGTCAGATGTGTATAAGAGACAGTTTTTTTTTTTTTTTTTTTTTTTTT…TC
Conditions: aptamer strand: ATP DNA aptamer (quencher-CACCTGGGGGAGTATTGCGGAGGAAGG + anchor), 100 nM annealed; ATP concentration: 500 uM; one replicate
Summary of the method: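 The fluorescence ratio divides summed target-cycle Cy3 intensity by summed buffer-cycle Cy3 intensity for each cluster and is averaged per switch-domain sequence. Cy3-labelled switching-strand clusters on a modified Illumina MiSeq flow-cell were annealed to 100 nM quencher-labelled ATP aptamer, then imaged in selection buffer and again after 15 min with 500 uM ATP at 22 °C. Five such cycles were run, with NaOH stripping and re-annealing between them, and clusters outside 100-1000 RFU were excluded.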
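Note: ATP exposure 15 min at 22 °C before imaging.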

In the case of CGTCAGGTGA, the switch fluorescence ratio is reported as 2.48.

CGGGTTGCT was tested, and the switch fluorescence ratio was 1.01.

CTTATAACCT was tested, and the switch fluorescence ratio was 1.92.

Work on ATATCTGCG yielded a switch fluorescence ratio of 0.963.

Sequence AGGGTAGGT has a switch fluorescence ratio of 0.968.

TTCGTCGTCC gave a switch fluorescence ratio of 1.03.

Sequence GTTGGCATCG has a switch fluorescence ratio of 0.992.

In the case of ATGCTCCTAT, the switch fluorescence ratio is reported as 1.02.

AATTTTTACC was tested, and the switch fluorescence ratio was 1.07.

CTACTACACT showed a switch fluorescence ratio of 1.31.

AACTCCCTG was tested, and the switch fluorescence ratio was 1.15.

TGCCTCATTC showed a switch fluorescence ratio of 1.05.

With AGAGGCCCCG the switch fluorescence ratio was 1.

With TACAGAATC the switch fluorescence ratio was 1.02.

In the case of ATTGGCCTCT, the switch fluorescence ratio is reported as 1.02.

TATTAGATTG showed a switch fluorescence ratio of 1.

Work on CTGAGAATTT yielded a switch fluorescence ratio of 1.05.

ACAATTATAA showed a switch fluorescence ratio of 1.02.

GAGCTGTTTT showed a switch fluorescence ratio of 1.03.

GCAAAGAACT showed a switch fluorescence ratio of 1.03.

Work on CGTAGTGACA yielded a switch fluorescence ratio of 0.982.

CAGTGCTTGG gave a switch fluorescence ratio of 1.01.

In the case of TCTGACGATC, the switch fluorescence ratio is reported as 1.66.

In the case of AGAATCGGTC, the switch fluorescence ratio is reported as 0.978.

Sequence AACTCGATTA has a switch fluorescence ratio of 0.945.

Sequence TGTCTGCAGA has a switch fluorescence ratio of 1.01.

For TCATGGCAA, the switch fluorescence ratio was 0.982.

Sequence TTCACTCTA has a switch fluorescence ratio of 1.11.

Sequence GTGGAACGGT has a switch fluorescence ratio of 0.982.

TAGCAGCGCA gave a switch fluorescence ratio of 1.03.

GAGTACGTGA gave a switch fluorescence ratio of 1.14.

With TTCATGTGA the switch fluorescence ratio was 0.992.

In the case of CCATTGAGAA, the switch fluorescence ratio is reported as 0.984.

TTTACCCTTT was tested, and the switch fluorescence ratio was 1.02.

CGCCCGGATA gave a switch fluorescence ratio of 1.06.

For TTTCAGGGCA, the switch fluorescence ratio was 1.11.

In the case of CGCGGCCGGT, the switch fluorescence ratio is reported as 1.02.

ATGGGTAAAT was tested, and the switch fluorescence ratio was 0.976.

In the case of TTACTTACCT, the switch fluorescence ratio is reported as 1.02.

With CCCGGCCAAA the switch fluorescence ratio was 1.15.

TAACGGTAC gave a switch fluorescence ratio of 1.64.

In the case of AAATGCCAGT, the switch fluorescence ratio is reported as 0.961.

ACAGTTCAAT showed a switch fluorescence ratio of 1.02.

TAAATAGTCG gave a switch fluorescence ratio of 0.971.

ATTCGCAAC was tested, and the switch fluorescence ratio was 3.96.

Sequence ACGTGACTCT has a switch fluorescence ratio of 1.06.

With ACACAGCTGG the switch fluorescence ratio was 1.03.

For ATCGTCGTCT, the switch fluorescence ratio was 1.06.

In the case of GGCCAAGCGT, the switch fluorescence ratio is reported as 0.972.

TAGAATTCAG gave a switch fluorescence ratio of 0.967.

In the case of CGCCGAATAT, the switch fluorescence ratio is reported as 1.55.

For CGGAGCGCTA, the switch fluorescence ratio was 1.42.

For AGGTAGTTCT, the switch fluorescence ratio was 1.04.

With GGAGCGAATA the switch fluorescence ratio was 4.6.

GGAGGGCATT gave a switch fluorescence ratio of 1.05.

TTCTACCTA gave a switch fluorescence ratio of 1.01.

Work on CTACGGGCAG yielded a switch fluorescence ratio of 0.991.

Sequence TTAGAGTGAC has a switch fluorescence ratio of 1.01.

Work on AAAGCCGAGC yielded a switch fluorescence ratio of 1.02.

With ATGTGGTAAA the switch fluorescence ratio was 1.02.

For ATCAACGGCT, the switch fluorescence ratio was 1.06.

CCCTCCTGTG was tested, and the switch fluorescence ratio was 1.99.

In the case of TCGGATGGCT, the switch fluorescence ratio is reported as 1.02.

GTCGCTACTC showed a switch fluorescence ratio of 1.98.

Sequence AGAATGTGGA has a switch fluorescence ratio of 0.923.

In the case of GCGAGTCTAT, the switch fluorescence ratio is reported as 1.06.

GCAGTGCGAT showed a switch fluorescence ratio of 0.993.

For GGAATTCCGG, the switch fluorescence ratio was 1.02.

For CGTTATGTGC, the switch fluorescence ratio was 0.992.

For CGCAATGGTA, the switch fluorescence ratio was 4.37.

For TGGGCACG, the switch fluorescence ratio was 1.04.

For CTATTACAAG, the switch fluorescence ratio was 1.03.

Work on TGGTCTAGAT yielded a switch fluorescence ratio of 0.982.

AGGTAA gave a switch fluorescence ratio of 0.967.

ACTACGTCAG showed a switch fluorescence ratio of 1.07.

CTGGGGTAAA showed a switch fluorescence ratio of 0.985.

For GGATAGAATG, the switch fluorescence ratio was 1.02.

Sequence TCATCGCTC has a switch fluorescence ratio of 1.23.

In the case of GGGTTTATAG, the switch fluorescence ratio is reported as 1.

GGATTACTGT was tested, and the switch fluorescence ratio was 0.943.

In the case of TTCAGGCAGC, the switch fluorescence ratio is reported as 0.996.

Work on CAGGATCTAC yielded a switch fluorescence ratio of 1.09.

For CGACTAGCGG, the switch fluorescence ratio was 1.03.

TCGGAACGGC gave a switch fluorescence ratio of 0.96.

For AGGGTCTCTT, the switch fluorescence ratio was 1.04.

GGCAGGATTG gave a switch fluorescence ratio of 0.992.

With AATGTACAGC the switch fluorescence ratio was 1.07.

Work on GACACCAATG yielded a switch fluorescence ratio of 0.993.

CAACTCTTG showed a switch fluorescence ratio of 1.

Work on AACATAATCA yielded a switch fluorescence ratio of 1.05.

GAGCGTGCTT was tested, and the switch fluorescence ratio was 1.02.

For CTCCGGTGTA, the switch fluorescence ratio was 1.84.

In the case of AATGGCAAAG, the switch fluorescence ratio is reported as 1.03.

With TACACTGTAC the switch fluorescence ratio was 1.87.

GCGTTTGACA was tested, and the switch fluorescence ratio was 0.996.

TTAAGGCGG showed a switch fluorescence ratio of 1.01.

Sequence TGTGTCCTTG has a switch fluorescence ratio of 1.01.

TGGGTCTTCT was tested, and the switch fluorescence ratio was 0.952.

Work on ATGAATAGTG yielded a switch fluorescence ratio of 0.988.

Work on AACCTTTGGA yielded a switch fluorescence ratio of 0.996.

In the case of GGCACAAGT, the switch fluorescence ratio is reported as 0.996.

TTGTAACAAT was tested, and the switch fluorescence ratio was 1.02.

In the case of ACTGTGATTC, the switch fluorescence ratio is reported as 1.05.

For GAGATCCTAT, the switch fluorescence ratio was 0.989.

Work on TTGGCTTGAG yielded a switch fluorescence ratio of 1.01.

For GAGCTTCTAT, the switch fluorescence ratio was 0.967.

CTTCGATTGT gave a switch fluorescence ratio of 0.977.

For TGTTCCCAGA, the switch fluorescence ratio was 0.969.

With GAGCTATCTC the switch fluorescence ratio was 1.12.

With CGCCATTAGA the switch fluorescence ratio was 1.02.

Sequence TTCTGACAC has a switch fluorescence ratio of 1.06.

TGTATTCACG showed a switch fluorescence ratio of 1.02.

Sequence GGCCTAGCAC has a switch fluorescence ratio of 1.02.

With CGTTCTGCCT the switch fluorescence ratio was 0.967.

AGGCCCAATG gave a switch fluorescence ratio of 0.974.

ACGTAGACAG gave a switch fluorescence ratio of 1.01.

CGACCATGGT showed a switch fluorescence ratio of 1.02.

Sequence AAGGGTGAT has a switch fluorescence ratio of 0.968.

With AGGTGCAGCT the switch fluorescence ratio was 1.01.

ACACTGCGTC showed a switch fluorescence ratio of 1.06.

For TAAGCGCCTG, the switch fluorescence ratio was 0.994.

With AAGCTTAAAA the switch fluorescence ratio was 0.965.

GACTGGGCTC was tested, and the switch fluorescence ratio was 1.01.

Work on TCCTTCAGTT yielded a switch fluorescence ratio of 0.964.

GGGATCTTTT was tested, and the switch fluorescence ratio was 1.

Sequence GTGTGCTGCC has a switch fluorescence ratio of 0.997.

With GTTTTATGGC the switch fluorescence ratio was 1.02.

Sequence AAACACGTGT has a switch fluorescence ratio of 1.13.

GAGGTATTAA was tested, and the switch fluorescence ratio was 0.985.

Sequence TCGCAGAAGC has a switch fluorescence ratio of 1.16.

GGCTTTACC showed a switch fluorescence ratio of 1.03.

GCTAAACGCC gave a switch fluorescence ratio of 1.02.

Sequence GCTGCACGGA has a switch fluorescence ratio of 1.04.

Work on TTTCACTTTG yielded a switch fluorescence ratio of 1.12.

Sequence GTGATATCTA has a switch fluorescence ratio of 0.947.

For ACCCCGTGCG, the switch fluorescence ratio was 1.14.

Work on TGGATCGTCA yielded a switch fluorescence ratio of 0.998.

Work on AGTTCGTTCG yielded a switch fluorescence ratio of 1.

Work on TCATTGTAGG yielded a switch fluorescence ratio of 0.982.

Sequence ATGGCTCTAT has a switch fluorescence ratio of 0.98.

In the case of ACTTTCAACC, the switch fluorescence ratio is reported as 1.15.

With GGTAGCGGGT the switch fluorescence ratio was 1.03.

Sequence CATCAGTGAT has a switch fluorescence ratio of 1.07.

TGAGTAGATG gave a switch fluorescence ratio of 1.02.

Work on ACTGACCGAA yielded a switch fluorescence ratio of 1.26.

Work on TAAACTCGTC yielded a switch fluorescence ratio of 1.17.

With CCATCCGATG the switch fluorescence ratio was 1.57.

With TGTGTTAACG the switch fluorescence ratio was 1.01.

GCACCCCCAC gave a switch fluorescence ratio of 1.39.

ACTTTTTCGA was tested, and the switch fluorescence ratio was 0.974.

With CACGTGCCTC the switch fluorescence ratio was 1.01.

Sequence ATGTCTATTT has a switch fluorescence ratio of 0.954.

Work on GAGCATGGAG yielded a switch fluorescence ratio of 0.992.

CATGGCGCGA showed a switch fluorescence ratio of 1.16.

TTGGAAGAGA showed a switch fluorescence ratio of 1.02.

In the case of GTCTAGGCGT, the switch fluorescence ratio is reported as 0.979.

Work on CGGACGGCAT yielded a switch fluorescence ratio of 1.45.

For TCGAGTGTCA, the switch fluorescence ratio was 0.976.

In the case of CGTAGTGATG, the switch fluorescence ratio is reported as 1.02.

AGTAGTCCAG showed a switch fluorescence ratio of 1.01.

Work on AGATAGTGGA yielded a switch fluorescence ratio of 0.989.

With AAGTTAAAGT the switch fluorescence ratio was 1.03.

In the case of GCTAGAAGGA, the switch fluorescence ratio is reported as 0.979.

CGCTACCTAT was tested, and the switch fluorescence ratio was 1.07.

For AACGGCTGCC, the switch fluorescence ratio was 0.974.

Sequence AGGTTCATGG has a switch fluorescence ratio of 1.

For TGGTACAGTT, the switch fluorescence ratio was 0.983.

Work on AAGTCCTAGC yielded a switch fluorescence ratio of 1.01.

For CATTGTGTCT, the switch fluorescence ratio was 0.964.

For AGTCGAGGTC, the switch fluorescence ratio was 1.02.

GCAAAATGTT showed a switch fluorescence ratio of 1.01.

With CTTGTGACTG the switch fluorescence ratio was 0.906.

TACCCCATTT showed a switch fluorescence ratio of 1.16.

Sequence CAGCCATGTT has a switch fluorescence ratio of 0.966.

ACAAGGCCTC showed a switch fluorescence ratio of 1.

In the case of TTCTGTTTAA, the switch fluorescence ratio is reported as 0.971.

For TTCAACTGAA, the switch fluorescence ratio was 1.03.

For TGACGTTTGT, the switch fluorescence ratio was 0.997.

Work on TTGCCCGTTT yielded a switch fluorescence ratio of 0.968.

In the case of CTGTTTCCAT, the switch fluorescence ratio is reported as 0.988.

For ATAACAATAG, the switch fluorescence ratio was 1.06.

With TTTGTAGGTA the switch fluorescence ratio was 0.979.

With TATTTCCGTG the switch fluorescence ratio was 0.974.

With GGCGACTTTT the switch fluorescence ratio was 1.06.

TAGGACCCAG gave a switch fluorescence ratio of 1.01.

ACATTGATAG gave a switch fluorescence ratio of 1.05.

AGTTAAACGG showed a switch fluorescence ratio of 1.01.

Work on ATTGGATATA yielded a switch fluorescence ratio of 1.12.

With ATAATGCAGT the switch fluorescence ratio was 0.994.

Sequence GTTCCGTCGG has a switch fluorescence ratio of 1.02.

ATTTCTAAGA gave a switch fluorescence ratio of 0.998.

Work on AGTTGGCGTG yielded a switch fluorescence ratio of 1.01.

Work on TACTAGTAAG yielded a switch fluorescence ratio of 1.03.

AAGGGGCACG gave a switch fluorescence ratio of 0.974.

AAGCGTGTAC gave a switch fluorescence ratio of 1.05.

Sequence TCATTCCAGA has a switch fluorescence ratio of 1.

In the case of GTTAATGTTA, the switch fluorescence ratio is reported as 0.969.

TCGGGATGCT was tested, and the switch fluorescence ratio was 1.06.

For ATCATTCACT, the switch fluorescence ratio was 0.991.

TCATTGAGGG gave a switch fluorescence ratio of 0.966.

Work on GCCCAAATCG yielded a switch fluorescence ratio of 1.05.
